Assay results taken from patent US20250066451A1 (SWEDISH ORPHAN BIOVITRUM AB PUBL, published 2025).

T1: human IL-1R-I (RnD Systems cat. no. 269-1R/CF) (human, UniProt P14778 18-332, limits assumed)
T1 construct: bought protein; also called hIL-1R-I; hIL-1RI
T1 sequence (looked up): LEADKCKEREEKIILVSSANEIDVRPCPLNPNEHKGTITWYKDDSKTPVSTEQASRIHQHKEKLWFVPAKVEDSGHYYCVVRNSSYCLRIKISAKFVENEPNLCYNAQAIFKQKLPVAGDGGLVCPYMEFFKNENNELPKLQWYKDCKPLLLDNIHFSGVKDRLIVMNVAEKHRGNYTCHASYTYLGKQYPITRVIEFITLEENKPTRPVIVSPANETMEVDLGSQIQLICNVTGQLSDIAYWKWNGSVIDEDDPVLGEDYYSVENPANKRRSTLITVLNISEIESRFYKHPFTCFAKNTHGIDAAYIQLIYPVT

T2: Human IL-1R-I-Fc (Creative BioMart cat. no. IL1RI-771H) (human, UniProt P14778 18-332, limits assumed)
T2 construct: Bought Fc fusion; also called hIL-1R-I-Fc; hIL-1RI-Fc; not shown: Fc part of the bought fusion
T2 sequence (looked up): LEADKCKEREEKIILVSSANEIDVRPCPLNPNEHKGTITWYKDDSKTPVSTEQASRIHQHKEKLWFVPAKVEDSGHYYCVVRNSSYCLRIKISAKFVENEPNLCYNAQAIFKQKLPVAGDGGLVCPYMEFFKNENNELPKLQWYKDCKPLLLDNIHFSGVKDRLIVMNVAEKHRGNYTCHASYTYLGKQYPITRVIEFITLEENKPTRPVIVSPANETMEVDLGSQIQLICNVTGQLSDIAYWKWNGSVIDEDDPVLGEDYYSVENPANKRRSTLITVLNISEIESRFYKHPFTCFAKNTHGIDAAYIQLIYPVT


Assays:
[1] = target: T1, human IL-1R-I (RnD Systems cat. no. …); experiment: Biacore SPR, hIL-1R-I immobilized, 1:1 model
From the text: One flow cell surface on the chip was activated and deactivated for use as blank during analyte injections.

[2] = target: T1, human IL-1R-I (RnD Systems cat. no. …); experiment: Biacore kinetic screening, Z-ABD captured on anti-ABD, 100 nM hIL-1R-I
[3] = target: T2, Human IL-1R-I-Fc (Creative BioMart cat. …); experiment: ELISA, captured Z-ABD, hIL-1R-I-Fc titrated

Binder	EC50 [3]	also measured
His6-Z16062 (designed binder) MGSSHHHHHHLQVDAKYAKEIEEAQMEIFYLPNLTRKQYTAFIRKLFDDPSQSSELLSEAKKLNDSQAPKVD		Kd [1]: 440 pM
His6-Z16163 (designed binder) MGSSHHHHHHLQVDAKYAKEVERAQMEIFELPNLTRRQYTAFIRKLLDDPSQSSELLSEAKKLNDSQAPKVD		Kd [1]: 550 pM
Z15864-ABD (designed binder) AQHDEALEVDAKYAKEIENAQMEIFALPNLTRKQYTAFIRKLLDDPSQSSELLSEAKKLNDSQAPKVDYVLAEAKVLANRELDKYGVSDYYKNLINNAKTVEGVKALIDEILAALPYVPG		Kd [2]: 16000 pM
Z15873-ABD (designed binder) AQHDEALEVDAKYAKEAEIAQMEIFALPNLTRKQYTAFIRKLLDDPSQSSELLSEAKKLNDSQAPKVDYVLAEAKVLANRELDKYGVSDYYKNLINNAKTVEGVKALIDEILAALPYVPG		Kd [2]: 23000 pM
Z15882-ABD (designed binder) AQHDEALEVDAKYAKEVEEAQMEIFGLPNLTRKQYTAFIRKLFDDPSQSSELLSEAKKLNDSQAPKVDYVLAEAKVLANRELDKYGVSDYYKNLINNAKTVEGVKALIDEILAALPYVPG		Kd [2]: 9000 pM
Z15889-ABD (designed binder) AQHDEALEVDAKYAKEVEAAQMEIFSLPNLTRKQYTAFIRKLLDDPSQSSELLSEAKKLNDSQAPKVDYVLAEAKVLANRELDKYGVSDYYKNLINNAKTVEGVKALIDEILAALPYVPG		Kd [2]: 15000 pM
Z19056 (designed binder, Z-ABD001 fusion in periplasmic extract; also called Z-ABD) AQHDEALEVDAKYAKEVEEIQLEIYALPNLTRKQYTAFIRKLLDDPSQSSELLSEAKKLNDSQAPKVDYVLAEAKVLANRELDKYGVSDYYKNLINNAKTVEGVKALIDEILAALPYVPG	220 pM	
Z19057 (designed binder, Z-ABD001 fusion in periplasmic extract; also called Z-ABD) AQHDEALEVDAKYAKEIEQVQLEIFGLPNLTRKQYTAFIRKLLDDPSQSSELLSEAKKLNDSQAPKVDYVLAEAKVLANRELDKYGVSDYYKNLINNAKTVEGVKALIDEILAALPYVPG	220 pM	
Z19059 (designed binder, Z-ABD001 fusion in periplasmic extract; also called Z-ABD) AQHDEALEVDAKYAKEVEEAQMEIYGLPNLTRKQYTAFIRKLLDDPSQSSELLSEAKKLNDSQAPKVDYVLAEAKVLANRELDKYGVSDYYKNLINNAKTVEGVKALIDEILAALPYVPG	350 pM	
Z19060 (designed binder, Z-ABD001 fusion in periplasmic extract; also called Z-ABD) AQHDEALEVDAKYAKEVEWAQMEIFDLPNLTRKQYTAFIRKLLDDPSQSSELLSEAKKLNDSQAPKVDYVLAEAKVLANRELDKYGVSDYYKNLINNAKTVEGVKALIDEILAALPYVPG	220 pM	
Z19072 (designed binder, Z-ABD001 fusion in periplasmic extract; also called Z-ABD) AQHDEALEVDAKYAKEIEEIQLEIFSLPNLTRKQYTAFIRKLLDDPSQSSELLSEAKKLNDSQAPKVDYVLAEAKVLANRELDKYGVSDYYKNLINNAKTVEGVKALIDEILAALPYVPG	160 pM	
Z19075 (designed binder, Z-ABD001 fusion in periplasmic extract; also called Z-ABD) AQHDEALEVDAKYAKEVEIIQYEIFGLPNLTRKQYTAFIRKLLDDPSQSSELLSEAKKLNDSQAPKVDYVLAEAKVLANRELDKYGVSDYYKNLINNAKTVEGVKALIDEILAALPYVPG	150 pM	
Z19078 (designed binder, Z-ABD001 fusion in periplasmic extract; also called Z-ABD) AQHDEALEVDAKYAKEIEAAQMEIFGLPNLTRKQYTAFIRKLLDDPSQSSELLSEAKKLNDSQAPKVDYVLAEAKVLANRELDKYGVSDYYKNLINNAKTVEGVKALIDEILAALPYVPG	220 pM	
Z19085 (designed binder, Z-ABD001 fusion in periplasmic extract; also called Z-ABD) AQHDEALEVDAKYAKEVEEIQYEIFGLPNLTRKQYTAFIRKLLDDPSQSSELLSEAKKLNDSQAPKVDYVLAEAKVLANRELDKYGVSDYYKNLINNAKTVEGVKALIDEILAALPYVPG	210 pM	
Z19090 (designed binder, Z-ABD001 fusion in periplasmic extract; also called Z-ABD) AQHDEALEVDAKYAKEIEEVQMEIFHLPNLTRRQYTAFIRKLLDDPSQSSELLSEAKKLNDSQAPKVDYVLAEAKVLANRELDKYGVSDYYKNLINNAKTVEGVKALIDEILAALPYVPG	200 pM	
Z19115 (designed binder, Z-ABD001 fusion in periplasmic extract; also called Z-ABD) AQHDEALEVDAKYAKETEEIQLEIFSLPNLTRKQYTAFIRKLLDDPSQSSELLSEAKKLNDSQAPKVDYVLAEAKVLANRELDKYGVSDYYKNLINNAKTVEGVKALIDEILAALPYVPG	230 pM	

Binder	EC50 [3]	also measured
Z19117 (designed binder, Z-ABD001 fusion in periplasmic extract; also called Z-ABD) AQHDEALEVDAKYAKEIEAIQLEIFALPNLTRKQYTAFIRKLLDDPSQSSELLSEAKKLNDSQAPKVDYVLAEAKVLANRELDKYGVSDYYKNLINNAKTVEGVKALIDEILAALPYVPG	210 pM	
Z19118 (designed binder, Z-ABD001 fusion in periplasmic extract; also called Z-ABD) AQHDEALEVDAKYAKEIEHVQYEIFALPNLTRKQYTAFIRKLLDDPSQSSELLSEAKKLNDSQAPKVDYVLAEAKVLANRELDKYGVSDYYKNLINNAKTVEGVKALIDEILAALPYVPG	230 pM	
Z19123 (designed binder, Z-ABD001 fusion in periplasmic extract; also called Z-ABD) AQHDEALEVDAKYAKEIEKAQMEIFALPNLTRRQYTAFIRKLLDDPSQSSELLSEAKKLNDSQAPKVDYVLAEAKVLANRELDKYGVSDYYKNLINNAKTVEGVKALIDEILAALPYVPG	260 pM	
Z19151 (designed binder, Z-ABD001 fusion in periplasmic extract; also called Z-ABD) AQHDEALEVDAKYAKEVEDIQLEIFALPNLTRRQYTAFIRKLLDDPSQSSELLSEAKKLNDSQAPKVDYVLAEAKVLANRELDKYGVSDYYKNLINNAKTVEGVKALIDEILAALPYVPG	230 pM	
Z19158 (designed binder, Z-ABD001 fusion in periplasmic extract; also called Z-ABD) AQHDEALEVDAKYAKETEEIQMEIFALPNLTRRQYTAFIRKLLDDPSQSSELLSEAKKLNDSQAPKVDYVLAEAKVLANRELDKYGVSDYYKNLINNAKTVEGVKALIDEILAALPYVPG	150 pM	
Z19159 (designed binder, Z-ABD001 fusion in periplasmic extract; also called Z-ABD) AQHDEALEVDAKYAKETEEVQMEIFALPNLTRRQYTAFIRKLLDDPSQSSELLSEAKKLNDSQAPKVDYVLAEAKVLANRELDKYGVSDYYKNLINNAKTVEGVKALIDEILAALPYVPG	210 pM	
Z19171 (designed binder, Z-ABD001 fusion in periplasmic extract; also called Z-ABD) AQHDEALEVDAKYAKEIEDIQLEIFGLPNLTRKQYTAFIRKLLDDPSQSSELLSEAKKLNDSQAPKVDYVLAEAKVLANRELDKYGVSDYYKNLINNAKTVEGVKALIDEILAALPYVPG	230 pM	
Z19172 (designed binder, Z-ABD001 fusion in periplasmic extract; also called Z-ABD) AQHDEALEVDAKYAKELEDVQLEIFSLPNLTRRQYTAFIRKLLDDPSQSSELLSEAKKLNDSQAPKVDYVLAEAKVLANRELDKYGVSDYYKNLINNAKTVEGVKALIDEILAALPYVPG	160 pM	
Z19180 (designed binder, Z-ABD001 fusion in periplasmic extract; also called Z-ABD) AQHDEALEVDAKYAKEVEIIQMEIFHLPNLTRRQYTAFIRKLLDDPSQSSELLSEAKKLNDSQAPKVDYVLAEAKVLANRELDKYGVSDYYKNLINNAKTVEGVKALIDEILAALPYVPG	200 pM	
Z19181 (designed binder, Z-ABD001 fusion in periplasmic extract; also called Z-ABD) AQHDEALEVDAKYAKEVEEVQLEIYSLPNLTRRQYTAFIRKLLDDPSQSSELLSEAKKLNDSQAPKVDYVLAEAKVLANRELDKYGVSDYYKNLINNAKTVEGVKALIDEILAALPYVPG	180 pM	
Z19182 (designed binder, Z-ABD001 fusion in periplasmic extract; also called Z-ABD) AQHDEALEVDAKYAKEVEAIQMEIFQLPNLTRRQYTAFIRKLLDDPSQSSELLSEAKKLNDSQAPKVDYVLAEAKVLANRELDKYGVSDYYKNLINNAKTVEGVKALIDEILAALPYVPG	170 pM	
Z19183 (designed binder, Z-ABD001 fusion in periplasmic extract; also called Z-ABD) AQHDEALEVDAKYAKEIEDAQMEIYDLPNLTRRQYTAFIRKLLDDPSQSSELLSEAKKLNDSQAPKVDYVLAEAKVLANRELDKYGVSDYYKNLINNAKTVEGVKALIDEILAALPYVPG	220 pM	
Z19302 (designed binder, Z-ABD001 fusion in periplasmic extract; also called Z-ABD) AQHDEALEVDAKYAKEIEAVQMEIFHLPNLTRKQYTAFIRKLLDDPSQSSELLSEAKKLNDSQAPKVDYVLAEAKVLANRELDKYGVSDYYKNLINNAKTVEGVKALIDEILAALPYVPG	260 pM	
Z19304 (designed binder, Z-ABD001 fusion in periplasmic extract; also called Z-ABD) AQHDEALEVDAKYAKETEQVQMEIFHLPNLTRKQYTAFIRKLLDDPSQSSELLSEAKKLNDSQAPKVDYVLAEAKVLANRELDKYGVSDYYKNLINNAKTVEGVKALIDEILAALPYVPG	270 pM	
Z19305 (designed binder, Z-ABD001 fusion in periplasmic extract; also called Z-ABD) AQHDEALEVDAKYAKETEAVQMEIFRLPNLTRRQYTAFIRKLLDDPSQSSELLSEAKKLNDSQAPKVDYVLAEAKVLANRELDKYGVSDYYKNLINNAKTVEGVKALIDEILAALPYVPG	260 pM	
